The whole screen tested about 3,200 compounds, of which about 75 (2%) showed an effect of 50% or more. The list shows a part of the results.
What follows are molecules tested on T1, S. aureus MSSA476. Conditions: relative growth, OD600, TSB; 25 µM; inhibitor.
T1 construct: MSSA476
Set-up: species or system S. aureus MSSA476 (TSB) or V. cholerae SAD30 (LB); 384-well bacterial growth screen at 25 uM, OD600 relative to DMSO control

Row | Structure (SMILES) | % of control remaining
1 | C=CC(=O)N(CC)CC(=O)N1CCc2c(ncn2CC)C1 [2-H08, N-ethyl-N-(2-{1-ethyl-1H,4H,5H,6H,7H-imidazo[4,5-c]pyridin-5-yl}-2-oxoethyl)prop-2-enamide] | 106.876%
2 | CC(C)OC(=O)c1c(NC(=O)CCl)sc2c1CCCC2 [4-E21, propan-2-yl 2-(2-chloroacetamido)-4,5,6,7-tetrahydro-1-benzothiophene-3-carboxylate] | 152.072%
3 | Cc1nn(-c2ccccc2)c(Cl)c1C=C(C#N)C(=O)NC(C)C [9-J17, 3-(5-chloro-3-methyl-1-phenyl-1H-pyrazol-4-yl)-2-cyano-N-(propan-2-yl)prop-2-enamide] | 77.9026%
4 | N#CC(=Cc1ccc(OC(F)F)cc1)C(=O)N1CCCc2ccccc21 [8-E03, 3-[4-(difluoromethoxy)phenyl]-2-(1,2,3,4-tetrahydroquinoline-1-carbonyl)prop-2-enenitrile] | 164.315%
5 | CCOc1cc(C=C(C#N)C(=O)Nc2nccs2)cc(Cl)c1O [9-K22, 3-(3-chloro-5-ethoxy-4-hydroxyphenyl)-2-cyano-N-(1,3-thiazol-2-yl)prop-2-enamide] | 54.2322%
6 | COc1ccc(NC(=O)C(C#N)=Cc2cccc(O)c2)cc1Cl [9-C08, N-(3-chloro-4-methoxyphenyl)-2-cyano-3-(3-hydroxyphenyl)prop-2-enamide] | 97.3783%
7 | C=CC(=O)Nc1cccc(S(=O)(=O)C2CCOCC2)c1 [3-M08, N-[3-(oxane-4-sulfonyl)phenyl]prop-2-enamide] | 105.529%
8 | CC(NC(=O)CCl)c1cn(-c2ccccc2)nn1 (stereo not drawn) [5-O06, 2-chloro-N-[1-(1-phenyl-1H-1,2,3-triazol-4-yl)ethyl]acetamide] | 91.0747%
9 | Cc1ccccc1NC(=O)C(C#N)=Cc1cc2c(cc1[N+](=O)[O-])OCO2 [9-P11, 2-cyano-N-(2-methylphenyl)-3-(6-nitro-1,3-dioxaindan-5-yl)prop-2-enamide] | 108.165%
10 | N#CC(=Cc1ccc(-c2ccccc2)cc1)C(=O)NCc1ccccc1 [8-C06, N-benzyl-3-{[1,1'-biphenyl]-4-yl}-2-cyanoprop-2-enamide] | 141.743%
11 | Cc1cc(CN(C(=O)CCl)c2ccc(F)cc2)nn1C [5-E14, 2-chloro-N-[(1,5-dimethyl-1H-pyrazol-3-yl)methyl]-N-(4-fluorophenyl)acetamide] | 100.182%
12 | CC(Cl)C(=O)NCC1CCCN(c2nccn3cnnc23)C1 (stereo not drawn) [7-M05, 2-chloro-N-[(1-{[1,2,4]triazolo[4,3-a]pyrazin-8-yl}piperidin-3-yl)methyl]propanamide] | 116.484%
13 | COc1ccc(S(=O)(=O)N2CCOCC2)cc1NC(=O)CCl [4-O04, 2-chloro-N-[2-methoxy-5-(morpholine-4-sulfonyl)phenyl]acetamide] | 102.906%
14 | C=CC(=O)N1CCN(Cc2ncon2)CC1 [3-I16, 1-{4-[(1,2,4-oxadiazol-3-yl)methyl]piperazin-1-yl}prop-2-en-1-one] | 96.8219%
15 | C=CC(=O)Nc1cn(CC(F)(F)F)nc1C [3-D06, N-[3-methyl-1-(2,2,2-trifluoroethyl)-1H-pyrazol-4-yl]prop-2-enamide] | 91.5977%
16 | CC(Cl)C(=O)N(C)C(C)c1cccc(NC(=O)c2ccccc2)c1 (stereo not drawn) [6-J14, N-{3-[1-(2-chloro-N-methylpropanamido)ethyl]phenyl}benzamide] | 94.5854%
17 | C=CC(=O)N(C)CC(=O)N1CCc2cc(OC)c(OC)cc2C1C (stereo not drawn) [3-C04, N-[2-(6,7-dimethoxy-1-methyl-1,2,3,4-tetrahydroisoquinolin-2-yl)-2-oxoethyl]-N-methylprop-2-enamide] | 96.8219%
18 | C=CC(=O)N1CCCCC1CNC(C)=O (stereo not drawn) [2-M07, N-{[1-(prop-2-enoyl)piperidin-2-yl]methyl}acetamide] | 100.261%
19 | CN(C)CCN1C(=O)C=CC1=O [10-G11, 1-[2-(dimethylamino)ethyl]-2,5-dihydro-1H-pyrrole-2,5-dione] | 95%
20 | C=CC(=O)N1CCC(C(=O)Nc2nncn2C)(c2ccccc2)CC1 [3-O12, N-(4-methyl-4H-1,2,4-triazol-3-yl)-4-phenyl-1-(prop-2-enoyl)piperidine-4-carboxamide] | 89.5081%
21 | O=C(CCl)NC1CCN(C(=O)CCc2ccccc2)CC1 [6-N08, 2-chloro-N-[1-(3-phenylpropanoyl)piperidin-4-yl]acetamide] | 108.585%
22 | N#CC(=Cc1ccccc1OC(F)F)C(=O)Nc1nccs1 [9-K19, 2-cyano-3-[2-(difluoromethoxy)phenyl]-N-(1,3-thiazol-2-yl)prop-2-enamide] | 96.779%
23 | CC(NC(=O)CCl)C(=O)N1CCS(=O)(=O)CC1 (stereo not drawn) [5-K14, 2-chloro-N-[1-(1,1-dioxo-1lambda6-thiomorpholin-4-yl)-1-oxopropan-2-yl]acetamide] | 123.133%
24 | N#CC(=Cc1ccc([N+](=O)[O-])o1)C(=O)NCc1ccco1 [8-I17, 2-cyano-N-[(furan-2-yl)methyl]-3-(5-nitrofuran-2-yl)prop-2-enamide] | -0.6639%
25 | N#CC(=Cc1cccc([N+](=O)[O-])c1)C(=O)NCc1ccccc1 [8-B22, N-benzyl-2-cyano-3-(3-nitrophenyl)prop-2-enamide] | 83.3195%
26 | C=CCNC(=O)C(C#N)=Cc1cc(F)ccc1F [9-H07, 2-cyano-3-(2,5-difluorophenyl)-N-(prop-2-en-1-yl)prop-2-enamide] | 106.367%
27 | COc1cc(C(C)NC(=O)CCl)sn1 (stereo not drawn) [7-H22, 2-chloro-N-[1-(3-methoxy-1,2-thiazol-5-yl)ethyl]acetamide] | 100.785%

Source: publication PMC11995724, “Antibiotic target discovery by integrated phenotypic and activity-based profiling of electrophilic fragments” (Cell chemical biology, 2025)
